Assay [1] deals with RAW-Dual. Put plainly: IRF Lucia reporter activity, fold change vs agonist alone; higher = enhanced IRF activity. To be noted: agonist: MPLA (TLR4) […]. Summed up:
(§1)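 After 50 nL of library stock was delivered by pin tool to RAW-Dual macrophages (50,000 cells/well, DMEM, 384-well plates), a PRR agonist was added 1 h later and the plates were kept at 37 °C, 5% CO2. Twenty hours later, IRF was read from supernatant by QuantiLuc luminescence and NF-κB by QuantiBlue absorbance at 620 nm. Reporter activity is stated as fold change over agonist-alone wells. Wells with IncuCyte confluency under 70% of agonist controls in both mask sets were counted as cytotoxic.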

Assay [2] relates to RAW-Dual. Put plainly: IRF Lucia reporter activity, fold change vs agonist alone; cytotoxicity flag (confluency mask): not cytotoxic; higher = enhanced IRF activity. A digest of the protocol: as §1
In assay [3] the test system is RAW-Dual. Put plainly: IRF Lucia reporter activity, fold change vs agonist alone; cytotoxicity flag (confluency mask): cytotoxic (confluency <70% of control); higher = enhanced IRF activity. A digest of the protocol: as §1
The mark [4] stands for this setting: library stock concentration (final ~1000-fold dilution): 10 mM, cytotoxicity flag (confluency mask): not cytotoxic.
Setting [5] is: agonist: 3'3'-cGAMP (STING) 10 ug/mL.

In all, about 2,900 compounds were measured (“IRF Lucia reporter activity, fold change vs agonist alone”: median about 0.9, highest 2% from about 2.8 on). This is one part of the list.

`CCCc1cc(=O)[nH]c(=S)[nH]1`: in the assay on RAW-Dual [1] (setting [4]), the “IRF Lucia reporter activity” value was found to be 0.617.
Regarding `CCCc1cc(=O)[nH]c(=S)[nH]1` (library stock concentration (final ~1000-fold dilution): 10 mM), the “IRF Lucia reporter activity” value in the assay on RAW-Dual [2] (setting [5]) amounted to 0.718; with RAW-Dual [2] (agonist: LPS (TLR4) 0.1 ug/mL), 0.515.
For `N#Cc1ccc(C2CCc3cncn32)c(F)c1` (stereo unspecified) (library stock concentration (final ~1000-fold dilution): 10 mM), in that order: 1.17 and 1.06.
Regarding `N#Cc1ccc(C2CCc3cncn32)c(F)c1` (stereo unspecified), in the assay on RAW-Dual [1] (setting [4]), the “IRF Lucia reporter activity” value was found to be 1.06.
As for `C=CC(=O)Nc1cccc(C)c1Nc1ncc2cc(-c3c(Cl)c(OC)cc(OC)c3Cl)ccc2n1` (library stock concentration (final ~1000-fold dilution): 2 mM), the results for the “IRF Lucia reporter activity” value in the assay on RAW-Dual [2] (setting [5]) and with RAW-Dual [2] (agonist: LPS (TLR4) 0.1 ug/mL) were 0.323 and 1.1, respectively.
As for `CN1CCN(CC(=O)N2c3ccccc3C(=O)Nc3cccnc32)CC1.Cl.Cl` (library stock concentration (final ~1000-fold dilution): 10 mM water), the “IRF Lucia reporter activity” value with RAW-Dual [2] (setting [5]) amounted to 1.36; in the assay with RAW-Dual [2] (agonist: LPS (TLR4) 0.1 ug/mL), 0.913.
As to `CN1CCN(CC(=O)N2c3ccccc3C(=O)Nc3cccnc32)CC1.Cl.Cl`, the “IRF Lucia reporter activity” value in the assay with RAW-Dual [1] (library stock concentration (final ~1000-fold dilution): 10 mM water, cytotoxicity flag (confluency mask): not cytotoxic) was 1.27.
Take `CN1CCN(Cc2ccc(NC(=O)Cc3ccc(Oc4cc(NC(=O)C5CC5)ncn4)cc3)cc2C(F)(F)F)CC1` (library stock concentration (final ~1000-fold dilution): 10 mM): the “IRF Lucia reporter activity” value in the assay on RAW-Dual [3] (setting [5]) amounted to 0.00771; in the assay on RAW-Dual [3] (agonist: LPS (TLR4) 0.1 ug/mL) it was 0.00669.
Take `CN1CCN(Cc2ccc(NC(=O)Cc3ccc(Oc4cc(NC(=O)C5CC5)ncn4)cc3)cc2C(F)(F)F)CC1`: the “IRF Lucia reporter activity” value in the assay with RAW-Dual [1] (library stock concentration (final ~1000-fold dilution): 10 mM, cytotoxicity flag (confluency mask): cytotoxic (confluency <70% of control)) was found to be 0.601.
Consider `CN(C)CCC(c1ccc(Br)cc1)c1ccccn1.O=C(O)/C=C\C(=O)O` (stereo unspecified), for which the “IRF Lucia reporter activity” value with RAW-Dual [1] (setting [4]) was 0.907.
As to `CN(C)CCC(c1ccc(Br)cc1)c1ccccn1.O=C(O)/C=C\C(=O)O` (stereo unspecified) (library stock concentration (final ~1000-fold dilution): 10 mM), the “IRF Lucia reporter activity” value in the assay with RAW-Dual [2] (setting [5]) is 0.857; in the assay with RAW-Dual [2] (agonist: LPS (TLR4) 0.1 ug/mL) it was 0.812.
The matching figures for `COc1cc(-c2cn(C)c(=O)c3cnccc23)cc(OC)c1CN(C)C` (library stock concentration (final ~1000-fold dilution): 10 mM): 0.838 and 0.835.
As to `Oc1ncnc2[nH]ncc12`, the “IRF Lucia reporter activity” value in the assay with RAW-Dual [1] (setting [4]) amounted to 0.959.
As to `Oc1ncnc2[nH]ncc12` (library stock concentration (final ~1000-fold dilution): 10 mM), the entries for the “IRF Lucia reporter activity” value in the assay on RAW-Dual [2] (setting [5]) and in the assay on RAW-Dual [2] (agonist: LPS (TLR4) 0.1 ug/mL) were 1.11 and 0.82, respectively.
For `COc1ccccc1C(=O)Nc1cc2c(cc1N1CCCC1)n(C)c(=O)n2C` (library stock concentration (final ~1000-fold dilution): 10 mM), in that order: 0.501 and 0.893.
Turning to `CC(NC(=Nc1cccc2ncccc12)NC#N)c1ccccc1` (stereo unspecified) (library stock concentration (final ~1000-fold dilution): 10 mM), the results for the “IRF Lucia reporter activity” value in the assay on RAW-Dual [2] (setting [5]) and in the assay on RAW-Dual [2] (agonist: LPS (TLR4) 0.1 ug/mL) were 0.7 and 0.936, respectively.

The values above are taken from the supplement of paper PMC10037445.
